Reference: PubChem BioAssay (NCI)
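Exposure lasted 48 hours, with cells grown in 96-well plates and compounds tested at five concentrations. Abbreviation: GI50, concentration required for 50% inhibition of growth. At the TGI there is no net growth.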

Tested on: NCI-H322M lung
Assay: DTP human tumour cell line panel, 48 h

| Structure (SMILES) | TGI | GI50 |
| --- | --- | --- |
| Brc1ccc2c(c1)-c1nc3nc4c(cc3cc1CC2)CCc1ccc(Br)cc1-4 | > 100 µM |  |
| Nc1nc2c(ncn2Cc2ccccc2CO)c(=O)[nH]1 | > 100 µM |  |
| OCCN1CCN2C=C(C3CCCC4N(CCO)CCN34)CCC21 (centres undefined) | > 100 µM |  |
| CC1=CC(=O)CC(C)(C)C1/C=C/C(C)=C/C=C/C(C)=C/C=C/C=C(C)/C=C/C=C(C)/C=C/C1=C(C)CC(O)CC1(C)C (centres undefined) | > 100 µM |  |
| O=C(Nc1n[nH]c2nnc(-c3cccnc3)cc12)C1CC1 | > 25 µM | > 12.9 µM |
| Cc1ccccc1-n1c2nc(=O)n(C)c(=O)c-2nc2ccccc21 | 52.7 µM |  |
| NCOC(=O)Cc1ccc(Br)cc1 | > 100 µM |  |
| COC(=O)C(C/C=C(\C)c1ccc(Cl)cc1)C(C)=O (centres undefined) | > 100 µM |  |
| c1ccc2cc(C[n+]3ccn(CCCCCCCCCCn4cc[n+](Cc5ccc6ccccc6c5)c4)c3)ccc2c1 | 18.4 µM | 3.55 µM |
| O=C1CC(=O)NC(=NNS(=O)(=O)c2ccccc2)N1 | > 100 µM |  |
| CC1C(OC2O[C@@H]3O[C@@]4(C)CC[C@H]5[C@H](C)CC[C@@H](C2C)[C@@]35O4)O[C@@H]2O[C@@]3(C)CC[C@H]4[C@H](C)CC[C@@H]1[C@@]24O3 (some centres undefined) | > 50 µM |  |
| CC1(C)[C@@H](OC(=O)CCC(=O)O)CC[C@]2(C)[C@H]3C(=O)C=C4[C@@H]5C[C@@](C)(C(=O)O)CC[C@]5(C)CC[C@@]4(C)[C@]3(C)CC[C@@H]12 | 89.1 µM | 56 µM |
| O=C(/C(=C\c1ccc(Cl)cc1)c1ccccc1)c1ccccc1 | > 100 µM |  |
| NNC(=O)N/N=C1\C(=O)N(c2ccc(Cl)c(Cl)c2)C(=O)C(=O)C1c1nc2ccccc2s1 (centres undefined) | > 100 µM |  |
| COC1(O)c2cccc(Cl)c2C(=O)N1C1(C(N)=O)CCCCC1 (centres undefined) | > 100 µM |  |
| CC(OC(=O)C(CC(=O)OC(C)(C)C)NC(=O)OC(C)(C)C)C(=O)OCc1ccccc1 (centres undefined) | > 100 µM |  |
| O=C(O)CCCc1ccc2ccccc2c1 | > 100 µM |  |
| O=C1OCC2=C1C(c1ccc(Cl)c(Cl)c1)c1cc3c(cc1N2CCO)CCC3 (centres undefined) | 8.63 µM | 0.249 µM |
| c1ccc2c(c1)CCc1[nH]c3c(c1-2)-c1ccccc1CC3 | > 100 µM |  |
| O=c1oc2ccc(Br)cc2c(=O)n1-c1ccc(I)cc1F | 8.64 µM | 0.333 µM |

| Structure (SMILES) | TGI | GI50 |
| --- | --- | --- |
| CN1CCN(C)C12C=CC=CC21CC1 | > 100 µM |  |
| Cc1ccc2c(c1)S(=O)(=O)c1ccc3ccccc3c1N2 | > 100 µM |  |
| COc1ccc2[nH]c3c(C)c4ccnc(NCCCN(C)CCCNc5ccc6ncn7c8ccccc8c(=O)c5c67)c4c(C)c3c2c1 | 6.18 µM |  |
| CN1CCN(Cc2ccc(NC(=O)c3cccc(C#Cc4cnc(N)c5ncccc45)c3F)cc2C(F)(F)F)CC1 | 8.77 µM | 1.94 µM |
| Cc1cc(N(CCCl)CCCl)ccc1C=Nc1ccc2ccccc2c1 | > 100 µM | > 100 µM |
| O=C(O)c1ccc(C2SCc3nc4ccccc4n32)cc1 (centres undefined) | > 100 µM |  |
| COC1=CC(c2ccc[nH]2)=N/C1=C\c1[nH]c(C)c(C(=O)CCCCC(=O)Oc2ccc3c(c2)CCC2C3CC[C@]3(C)[C@@H](O)CC[C@@H]23)c1C (some centres undefined) | > 100 µM | > 100 µM |
| N#C[Se]CCCNS(=O)(=O)C1CC2C=CC1C2 (centres undefined) | 3.89 µM | 0.852 µM |
| OCCOc1ccccc2cccc1-2 | > 100 µM |  |
| COc1ccc(C(=O)C(c2ccc(OCc3ccccc3)cc2)c2ccc(OCc3ccccc3)cc2)cc1 | > 100 µM |  |
| CCN(CC)CCNc1ccc2nnn3c4ccc(O)cc4c(=O)c1c23 | 17.1 µM |  |
| O=C1C(Cl)N(c2cccc([N+](=O)[O-])c2)C1c1c[nH]c2ccccc12 (centres undefined) | 46.4 µM |  |
| Cc1cc(C(C)(C)C)cc(CNC2CCCCC2)c1O | 35.4 µM |  |
| Cc1ccc2nc(C=Nc3ccc(Cl)cc3)cc(C)c2c1 | > 100 µM |  |
| COc1cc2c(cc1OC)C1Cc3cc(OC)c(OC)cc3C(C2)N1C | > 75 µM |  |
| COc1ccc(/C=C/C(=O)c2ccc(OC)c(OC)c2)cc1O | 18.5 µM | 5.32 µM |
| O=c1cn[nH]c(=S)n1/N=C/c1c[nH]c2ccccc12 | > 100 µM |  |
| CC(=O)OC12c3ccccc3-c3ccccc3C1C1C(=O)OC(=O)C12 (centres undefined) | > 10 µM |  |
| COc1cccc(N(CN2C(=O)CCC2C(=O)O)C(C)=O)c1 (centres undefined) | > 100 µM |  |
